Measurements taken from PubChem BioAssay AID540267 (National Center for Advancing Translational Sciences (NCATS), 2011).
The whole screen tested about 340,000 compounds, of which about 530 (0.16%) were called active. The inconclusive results got no clear call from the source; some entries with a clear call stand among them for comparison. No stated cut-off is given here; in the data, active means activity change below about -80%; inconclusive means between about -30% and that limit; inactive means weaker than that.

Test: Small Molecules that selectively kill Giardia lamblia: qHTS;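 further: parasites exposed to compound for two days anaerobically before the ATP read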
Details: Giardia lamblia trophozoite viability; at 7.66 µM; stronger effect = lower value
Outline: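 Viability, read as ATP luminescence: trophozoites at 100 cells/well, compound added, 48 hrs anaerobic at 37 deg C, then 15-30 min room-temperature development before reading.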
On the % scale 0 is the no-effect control and ±100 the full control effect.

Q: Which activity change does the source give for `Cc1ccccc1-n1ncc(C(C)NS(=O)(=O)c2ccccc2Cl)c1C` (stereo unspecified) here?
A: inconclusive: -35.7% [inhibitor]

Q: Which activity change does the source give for `O=C(COc1c(Br)cc(Br)c2cccnc12)N1CCCCC1` here?
A: inactive: 28.1%

Q: For `COc1ccc(C2Nc3ccccc3C(=O)N2NS(C)(=O)=O)c(OC)c1` (stereo unspecified), which activity change is on record?
A: inconclusive: -30% [inhibitor]

Q: For `COc1ccccc1/C=C/c1ccc2cccc(O)c2n1`, which activity change is on record?
A: inconclusive: -38.1% [inhibitor]

Q: For `O=C(CSc1ccsc1[N+](=O)[O-])NCCc1ccccc1`, which activity change is on record?
A: inconclusive: -78.1% [inhibitor]

Q: With `CCc1ccc(NC(=O)c2cnn3ccccc23)cc1` as the molecule, how does the activity change read?
A: inconclusive: -33.5% [inhibitor]

Q: For `CN1C(=O)/C(=C/c2ccc(O)c([N+](=O)[O-])c2)N(C)C1=S`, which activity change is on record?
A: active: -91.3%

Q: Which activity change does the source give for `O=[N+]([O-])c1ccc(/C=N/Nc2nc(N3CCCCC3)nc(N3CCCCC3)n2)o1` here?
A: active: -84.4%

Q: Which activity change does the source give for `COC(=O)c1cscc1NC(C)=O` here?
A: inconclusive: -34.1% [inhibitor]

Q: Which activity change does the source give for `O=C(/C=C/c1cc2ccccc2o1)c1ccccc1O` here?
A: inactive: -15.3%

Q: For `Nc1nonc1NC(=O)CSc1ncccc1C(=O)O`, which activity change is on record?
A: inactive: -15.7%

Q: Which activity change does the source give for `C=CCNC(=O)c1ccc2c3n(nc2c1)-c1ccc(Cl)cc1CO3` here?
A: inconclusive: -38% [inhibitor]

Q: For `COc1ccc(-c2nc3ccccc3c(=O)[nH]2)cc1`, which activity change is on record?
A: inconclusive: -30.3% [inhibitor]

Q: For `Cc1nn(C)cc1S(=O)(=O)N1CCN(Cc2ccc(F)cc2Cl)CC1`, which activity change is on record?
A: inconclusive: -37.6% [inhibitor]

Q: Which activity change does the source give for `Cc1nc2ccccc2n1Cc1ccc(Cl)cc1` here?
A: inactive: -27.8%

Q: For `O=CNc1ccc2c(c1)Cc1cc([N+](=O)[O-])ccc1-2`, which activity change is on record?
A: inconclusive: -32.6% [inhibitor]

Q: Which activity change does the source give for `O=C(COC(=O)c1ccc([N+](=O)[O-])o1)Nc1ccc(Br)cc1F` here?
A: inconclusive: -33.5% [inhibitor]

Q: For `COc1ccc(CNC(=O)c2cccs2)cc1`, which activity change is on record?
A: inactive: -4.36%

Q: With `COc1ccccc1C1C(C(=O)c2ccco2)=C(O)C(=O)N1c1cc(C)on1` (stereo unspecified) as the molecule, how does the activity change read?
A: inactive: 14.3%

Q: For `COc1ccc2[nH]c3c(c2c1)CCN1C(=O)C(CC(=O)NCCC2=CCCCC2)C[C@H](C(=O)N2CCOCC2)[C@@]31CCC1CCCC1` (stereo partly specified), which activity change is on record?
A: inactive: -13.7%

Q: With `O=c1[nH]c(CN2CCN(C/C=C/c3ccccc3)CC2)nc2ccccc12` as the molecule, how does the activity change read?
A: inactive: -24%

Q: For `CSc1nc2ccc(NC(=O)c3ccccn3)cc2s1`, which activity change is on record?
A: inconclusive: -60% [inhibitor]

Q: Which activity change does the source give for `Cc1cc(=O)oc2cc(O)ccc12` here?
A: inconclusive: -31.4% [inhibitor]

Q: With `C=CCNC(=O)C(=O)Nc1cc2c3c(c1)CCC(=O)N3CCC2` as the molecule, how does the activity change read?
A: inconclusive: -31.5% [inhibitor]

Q: With `Cc1ccc(-c2cn3c(=O)cc(C)[nH]c3n2)cc1` as the molecule, how does the activity change read?
A: inconclusive: -58.5% [inhibitor]

Q: With `Cc1ccc2cc(NC(=O)Cc3ccccc3)ccc2n1` as the molecule, how does the activity change read?
A: inconclusive: -43.6% [inhibitor]

Q: Which activity change does the source give for `Cc1ccc(S(=O)(=O)N(C)C)cc1NC(=S)NCCc1ccccn1` here?
A: inconclusive: -37.7% [inhibitor]

Q: For `COc1ccc(C(=O)Nc2ccccc2NC(=O)c2ccc(OC)cc2)cc1`, which activity change is on record?
A: inconclusive: -33.7% [inhibitor]

Q: With `CC(C)CC(=O)Nc1nnc(S(=O)(=O)N2CCc3ccccc32)s1` as the molecule, how does the activity change read?
A: inconclusive: -30.3% [inhibitor]

Q: For `COc1ccc(NCc2ccc([N+](=O)[O-])s2)c(OC)c1`, which activity change is on record?
A: inconclusive: -31.7% [inhibitor]

Q: Which activity change does the source give for `CCC1CCCCN1CCCNC(=O)c1ccc2c(=O)n(CCOC)c(=O)[nH]c2c1` (stereo unspecified) here?
A: inactive: -2.5%

Q: With `Fc1ccc(C2CCCN2Cc2nc(Cc3ccccc3F)no2)cc1` (stereo unspecified) as the molecule, how does the activity change read?
A: inconclusive: -32.6% [inhibitor]

Q: For `COc1ccc(OC)c2sc(NC(=O)c3ccc(Cl)s3)nc12`, which activity change is on record?
A: inconclusive: -37.9% [inhibitor]

Q: For `Cc1c(/C=N/NC(=O)c2ccccc2O)c2ccccn2c1C(=O)c1ccc(F)cc1`, which activity change is on record?
A: inconclusive: -34.5% [inhibitor]

Q: With `O=C(COc1cccnc1[N+](=O)[O-])Nc1cc(Cl)ccc1Cl` as the molecule, how does the activity change read?
A: inconclusive: -72.2% [inhibitor]

Q: For `CCCCC(=O)N1CCN(c2nc3ccc(OCC)cc3s2)CC1`, which activity change is on record?
A: inactive: 1.28%

Q: With `CCn1cc(C(=O)NCCC(C)C)c(=O)c2cc(F)c(N3CCN(C(=O)c4ccco4)CC3)cc21` as the molecule, how does the activity change read?
A: inconclusive: -45.9% [inhibitor]

Q: For `COc1ccc(-c2cc(C(=O)N3CCN(c4ccccn4)CC3)c3ccccc3n2)cc1`, which activity change is on record?
A: inconclusive: -36% [inhibitor]

Q: With `COc1ccccc1NC(=O)c1ccc([N+](=O)[O-])o1` as the molecule, how does the activity change read?
A: active: -96.1%

Q: For `CC(C)(C)OC(=O)CN1c2cccc3cccc(c23)S1(=O)=O`, which activity change is on record?
A: inactive: 23.5%

Q: For `CC(CCc1ccccc1)NC(=O)CN1CCN(Cc2ccccc2)C1=O` (stereo unspecified), which activity change is on record?
A: inactive: 3.35%

Q: Which activity change does the source give for `Cc1ccc(S(=O)(=O)N2[C@@H](c3cccc(Cl)c3)C(C(=O)O)=CC[C@H]2c2cccc(C)c2)cc1` here?
A: inconclusive: -48.7% [inhibitor]

Q: Which activity change does the source give for `COc1ccc(/C=C/C(=O)c2ccc(O)cc2)cc1` here?
A: inconclusive: -30.5% [inhibitor]

Q: For `Cc1nn(CC(=O)N2CCOCC2)c(C)c1[N+](=O)[O-]`, which activity change is on record?
A: inconclusive: -31.7% [inhibitor]

Q: Which activity change does the source give for `CCc1ccc(-c2cc(C(=O)O)c3ccccc3n2)s1` here?
A: inconclusive: -75.1% [inhibitor]

Q: For `Fc1cccc(Nc2nc3ccccc3n3cnnc23)c1`, which activity change is on record?
A: inconclusive: -35.8% [inhibitor]

Q: For `COC(=O)c1cc(O)c(O)c(O)c1`, which activity change is on record?
A: inactive: -6.79%

Q: For `OCCC1CN(C2CCN(c3ccccc3F)CC2)CCN1Cc1ccccc1` (stereo unspecified), which activity change is on record?
A: inconclusive: -31% [inhibitor]

Q: With `CCN(CC(=O)NCc1cccs1)C(=O)/C=C/c1cccc(Cl)c1Cl` as the molecule, how does the activity change read?
A: inconclusive: -31% [inhibitor]

Q: With `Cc1scc2c1N(C(=O)CN1CCN(C)CC1)c1ccccc1NC2=O` as the molecule, how does the activity change read?
A: inconclusive: -30.4% [inhibitor]

Q: Which activity change does the source give for `COc1cccc(-c2cn3nc4c(nc3n2)CCCC4)c1` here?
A: inconclusive: -41.5% [inhibitor]

Q: For `COc1ccc(-n2nc(C(=O)NCC(=O)NCCCN3CCOCC3)c3ccccc3c2=O)cc1Cl`, which activity change is on record?
A: inactive: -5.91%

Q: Which activity change does the source give for `CCOC(=O)c1ccc[n+](CC(=O)Nc2cc(C(F)(F)F)ccc2Cl)c1` here?
A: inconclusive: -30% [inhibitor]

Q: With `C[C@H](CO)N1C[C@H](C)[C@@H](CN(C)S(=O)(=O)c2ccccc2)Oc2ccc(NC(=O)Nc3ccccc3)cc2C1=O` as the molecule, how does the activity change read?
A: inactive: 21.3%

Q: Which activity change does the source give for `Cc1ccc(Cn2c(C(CO)Nc3nc(-c4ccc(F)cc4)cs3)nc3ccccc32)cc1` (stereo unspecified) here?
A: inactive: 10.1%

Q: For `COC(=O)c1cccc(NC(=O)CSc2nnc(C)n2C)c1`, which activity change is on record?
A: inconclusive: -39.3% [inhibitor]

Q: With `C(=N\N=C\c1ccncc1)/c1ccncc1` as the molecule, how does the activity change read?
A: inconclusive: -31% [inhibitor]

Q: Which activity change does the source give for `CCOC(=O)c1cc(-c2ccccc2)n(CC2CC(c3ccc(OC)cc3)=NO2)n1` (stereo unspecified) here?
A: inconclusive: -40.6% [inhibitor]

Q: Which activity change does the source give for `CN(C)c1ccc(C(=O)N2CCN(c3cc(C(F)(F)F)nc4ccccc34)CC2)cc1` here?
A: inactive: -5.41%

Q: Which activity change does the source give for `CCOC(=O)C1CCCN(C(=O)c2cc(-c3ccco3)nc3ccccc23)C1` (stereo unspecified) here?
A: inactive: 7.62%

Q: Which activity change does the source give for `O=C(NC1CCCC1)C(c1ccc(Cl)cc1)N1CCc2ccccc21` (stereo unspecified) here?
A: inconclusive: -36.3% [inhibitor]

Q: For `C=CCNC(=S)NS(=O)(=O)c1cccs1`, which activity change is on record?
A: inactive: 0.683%

Q: With `CCOC(=O)c1c(C)[nH]c(C(=O)OCC(=O)NCCc2ccc(OCC)c(OCC)c2)c1C` as the molecule, how does the activity change read?
A: inactive: 3.24%

Q: For `O=C(CCC(=O)Nc1ccc(Cl)cc1Cl)N/N=C/c1ccc([N+](=O)[O-])o1`, which activity change is on record?
A: active: -82%

Q: For `Cc1ccnc(NC(c2ccccc2)c2ccc3cccnc3c2O)c1` (stereo unspecified), which activity change is on record?
A: inconclusive: -30.7% [inhibitor]

Q: Which activity change does the source give for `Cc1ccc(-c2nc(NC(=O)c3nn(C)cc3[N+](=O)[O-])sc2C)cc1C` here?
A: inconclusive: -31.1% [inhibitor]

Q: For `Nc1ccc(-c2cnc(-c3ccc(N)cc3)nc2)cc1`, which activity change is on record?
A: inconclusive: -59% [inhibitor]

Q: For `CCOC(=O)c1nnn(-c2ccc([N+](=O)[O-])cc2[N+](=O)[O-])c1C`, which activity change is on record?
A: inconclusive: -51.8% [inhibitor]

Q: With `Cc1ccc2nc(SCC(=O)c3cc(C)n(C)c3C)[nH]c2c1` as the molecule, how does the activity change read?
A: inactive: -8.06%

Q: With `Cc1ccc(NC(=S)NNC(=O)c2c(Cl)c(C)nn2C)cc1` as the molecule, how does the activity change read?
A: inactive: -8.84%

Q: Which activity change does the source give for `O=C(Cc1ccccc1)Nc1ccccc1N1CCOCC1` here?
A: inactive: 2.34%

Q: Which activity change does the source give for `O=C(C1CCN(S(=O)(=O)c2ccc(Cl)s2)CC1)N1CCN(c2ccccc2)CC1` here?
A: inconclusive: -31.8% [inhibitor]

Q: Which activity change does the source give for `Nc1ccccc1SCc1cn2cccnc2n1` here?
A: inconclusive: -38% [inhibitor]

Q: With `O=c1oc2ccccc2cc1-c1cn2ccccc2n1` as the molecule, how does the activity change read?
A: inconclusive: -57% [inhibitor]

Q: Which activity change does the source give for `O=C(CN1CCOCC1)Nc1ncc(Br)cc1Br` here?
A: inconclusive: -38.4% [inhibitor]

Q: Which activity change does the source give for `COc1cc2c(cc1OC)C(c1ccccc1)NC(C)(C)C2` (stereo unspecified) here?
A: inconclusive: -30.5% [inhibitor]

Q: With `O=C(NNC(=O)c1ccc([N+](=O)[O-])o1)c1ccccc1` as the molecule, how does the activity change read?
A: active: -97.8%

Q: Which activity change does the source give for `O=C(N/N=C\c1cccc(F)c1)c1ccc(Cn2cc(Br)c([N+](=O)[O-])n2)o1` here?
A: inconclusive: -41.9% [inhibitor]

Q: With `Cc1ccc(N(Cc2ccc(C(=O)NCCSc3ccccn3)cc2)S(C)(=O)=O)cc1C` as the molecule, how does the activity change read?
A: inactive: -6.39%

Q: Which activity change does the source give for `NC(=O)N/N=C/C=C/c1ccc(F)cc1` here?
A: inactive: 2.54%

Q: Which activity change does the source give for `O=C(Nc1ccc(-c2nc3ccccc3c(=O)o2)cc1)c1ccco1` here?
A: inconclusive: -31.3% [inhibitor]
